These are yes or no findings as the source states them, for the method shown. Some results given as binding are weak or reduced against the parent protein; the word gives no strength.

Protein sequences, listed by entry. Tags and fused reporters are not part of them. Lines headed by an entry give the natural chain unless they say otherwise; changes in a name come on top. Chains listed by the source or under a name are the forms on record and can include a tag or linker. Residues count along the entry.
human CDC42 (aa 1-178), wild type (P60953, residues 1-178): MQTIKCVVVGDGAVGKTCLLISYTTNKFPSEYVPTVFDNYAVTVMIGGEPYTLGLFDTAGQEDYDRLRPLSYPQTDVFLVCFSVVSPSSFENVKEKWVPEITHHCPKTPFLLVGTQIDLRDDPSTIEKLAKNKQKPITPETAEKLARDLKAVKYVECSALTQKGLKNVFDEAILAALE
human CDC42 (aa 1-178) Q61L (P60953, form named): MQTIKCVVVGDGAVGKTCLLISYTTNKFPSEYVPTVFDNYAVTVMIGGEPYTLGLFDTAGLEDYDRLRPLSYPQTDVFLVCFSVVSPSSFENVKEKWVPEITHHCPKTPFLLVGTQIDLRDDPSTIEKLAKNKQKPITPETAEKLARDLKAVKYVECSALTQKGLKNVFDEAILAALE

The target in test [1] is human CDC42 (aa 1-178), wild type (human) (UniProt P60953). Kind of test: fluorescence polarisation; 1 µM mant-GppNHp-bound CDC42 in the cuvette, IQGAP protein titrated; quadratic ligand binding equation; both purified. Background: Fluorescence polarisation rises when a labelled molecule tumbles more slowly, as on binding a larger partner.
Test [2] shares this target. Kind of test: fluorescence polarisation; 1 µM mant-GDP-bound CDC42 in the cuvette, IQGAP protein titrated; quadratic ligand binding equation; both purified.
Test [3] deals with human CDC42 (aa 1-178) Q61L (human) (UniProt P60953). Described as above.

B1: human IQGAP3 GRD3 (aa 942-1330) (domain or fragment, UniProt Q86VI3 942-1330)
chain: LKSLSKEKRQKLEAYQHLFYLLQTQPIYLAKLIFQMPQNKTTKFMEAVIFSLYNYASSRREAYLLLQLFKTALQEEIKSKVEQPQDVVTGNPTVVRLVVRFYRNGRGQSALQEILGKVIQDVLEDKVLSVHTDPVHLYKNWINQTEAQTGQRSHLPYDVTPEQALSHPEVQRRLDIALRNLLAMTDKFLLAITSSVDQIPYGMRYVAKVLKATLAEKFPDATDSEVYKVVGNLLYYRFLNPAVVAPDAFDIVAMAAGGALAAPQRHALGAVAQLLQHAAAGKAFSGQSQHLRVLNDYLEETHLKFRKFIHRACQVPEPEERFAVDEYSDMVAVAKPMVYITVGELVNTHRLLLEHQDCIAPDHQDPLHELLEDLGELPTIPDLIGESIA
B1: the binding result in test [1] and in test [2] was “binds weakly” in each case.

B2: human IQGAP2 GRD2 (aa 875-1246) (domain or fragment, UniProt Q13576 875-1246)
chain: SKERRKTLETYQQLFYLLQTNPLYLAKLIFQMPQNKSTKFMDTVIFTLYNYASNQREEYLLLKLFKTALEEEIKSKVDQVQDIVTGNPTVIKMVVSFNRGARGQNTLRQLLAPVVKEIIDDKSLIINTNPVEVYKAWVNQLETQTGEASKLPYDVTTEQALTYPEVKNKLEASIENLRRVTDKVLNSIISSLDLLPYGLRYIAKVLKNSIHEKFPDATEDELLKIVGNLLYYRYMNPAIVAPDGFDIIDMTAGGQINSDQRRNLGSVAKVLQHAASNKLFEGENEHLSSMNNYLSETYQEFRKYFKEACNVPEPEEKFNMDKYTDLVTVSKPVIYISIEEIISTHSLLLEHQDAIAPEKNDLLSELLGSLGE
For the molecule B2, the binding entry in test [3] and in test [2] was “binds weakly” each time.

Values taken from article PMC9408373.
